Assay results from a collection of fitness landscapes (doi:10.1126/science.1257360).
Some of the results follow.

B1: PhoQ; a variant is named by its letters at X, in order, P23837 (parent)
chain: MKKLLRLFFPLSLRVRFLLATAAVVLVLSLAYGMVALIGYSVSFDKTTFRLLRGESNLFYTLAKWENNKLHVELPENIDKQSPTMTLIYDENGQLLWAQRDVPWLMKMIQPDWLKSNGFHEIEADVNDTSLLLSGDHSIQQQLQEVREDDDDAEMTHSVAVNVYPATSRMPKLTIVVVDTIPVELKSSYMVWSWFIYVLSANLLLVIPLLWVAAWWSLRPIEALAKEVRELEEHNRELLNPATTRELTSLVRNLNRLLKSERERYDKYRTTLTDLTHSLKTPLXXLQXXLRSLRSEKMSVSDAEPVMLEQISRISQQIGYYLHRASMRGGTLLSRELHPVAPLLDNLTSALNKVYQRKGVNISLDISPEISFVGEQNDFVEVMGNVLDNACKYCLEFVEISARQTDEHLYIVVEDDGPGIPLSKREVIFDRGQRVDTLRPGQGVGLAVAREITEQYEGKIVAGESMLGGARMEVIFGRQHSAPKDE

Variants of: B1
Assay: enrichment ratio after two sorts for PhoP signalling (ratio (wild type AVST 3.29)); higher = more functional
Settings: with PhoP (E. coli)

| Variant | enrichment ratio |
| --- | --- |
| WFAI | ≤ 0.25 |
| DIRM | ≤ 0.25 |
| DSYQ | ≤ 0.25 |
| MNLM | 15.1 |
| PFEG | ≤ 0.25 |
| THYE | ≤ 0.25 |
| GFLY | ≤ 0.25 |
| VCFY | ≤ 0.25 |
| NQYN | ≤ 0.25 |
| IWMK | ≤ 0.25 |
| RDTK | ≤ 0.25 |
| FCYV | ≤ 0.25 |
| HLYH | ≤ 0.25 |
| HFGI | ≤ 0.25 |
| CLSI | ≤ 0.25 |
| NMTV | ≤ 0.25 |
| YDLY | ≤ 0.25 |
| PYLW | ≤ 0.25 |
| DRRC | ≤ 0.25 |
| MTYI | 10.3 |
| FPAR | ≤ 0.25 |
| CFAL | ≤ 0.25 |
| VTRV | ≤ 0.25 |
| WWAF | ≤ 0.25 |

| Variant | enrichment ratio |
| --- | --- |
| ARNA | ≤ 0.25 |
| FIKH | ≤ 0.25 |
| TGEC | 1.95 |
| IRSC | ≤ 0.25 |
| RTEL | ≤ 0.25 |
| QHAC | ≤ 0.25 |
| CHRH | ≤ 0.25 |
| RNTV | ≤ 0.25 |
| GMSW | ≤ 0.25 |
| PPAW | ≤ 0.25 |
| PIWW | ≤ 0.25 |
| NNPD | ≤ 0.25 |
| VWPI | ≤ 0.25 |
| LWTA | ≤ 0.25 |
| SAQK | ≤ 0.25 |
| GECE | ≤ 0.25 |
| NLDN | ≤ 0.25 |
| FENT | ≤ 0.25 |
| HYRT | ≤ 0.25 |
| KHPF | ≤ 0.25 |
| QMVE | ≤ 0.25 |
| MNLH | ≤ 0.25 |
| DYAR | ≤ 0.25 |
| SLEC | ≤ 0.25 |

| Variant | enrichment ratio |
| --- | --- |
| YGWW | ≤ 0.25 |
| LWTH | ≤ 0.25 |
| TMLG | 11.6 |
| IKHW | ≤ 0.25 |
| AEYR | ≤ 0.25 |
| KHVV | ≤ 0.25 |
| DNKG | ≤ 0.25 |
| STDW | ≤ 0.25 |
| SNGF | 9.13 |
| WTPL | ≤ 0.25 |
| AHDI | ≤ 0.25 |
| GDNH | ≤ 0.25 |
| RYLS | ≤ 0.25 |
| EALV | ≤ 0.25 |
| DNVT | ≤ 0.25 |
| MAHW | ≤ 0.25 |
| FFQE | ≤ 0.25 |
| EVRV | ≤ 0.25 |
| LVHS | ≤ 0.25 |
| GPES | ≤ 0.25 |
| FKYF | ≤ 0.25 |
| SILR | 5.75 |
| PLRE | ≤ 0.25 |
| TPQI | ≤ 0.25 |

| Variant | enrichment ratio |
| --- | --- |
| NIIN | ≤ 0.25 |
| EHRQ | ≤ 0.25 |
| EAEF | ≤ 0.25 |
| EKWL | ≤ 0.25 |
| FAPA | ≤ 0.25 |
| VGQM | 0.803 |
| AWML | ≤ 0.25 |
| AYHH | ≤ 0.25 |
| PTRA | ≤ 0.25 |
| FKII | ≤ 0.25 |
| FYPD | ≤ 0.25 |
| LEWC | 17.6 |
| DEVY | ≤ 0.25 |
| AGSY | 14.7 |
| HEQR | ≤ 0.25 |
| RGFS | ≤ 0.25 |
| LDLE | ≤ 0.25 |
| VFFI | ≤ 0.25 |
| IWFQ | ≤ 0.25 |
| DSPL | ≤ 0.25 |
| LFWH | ≤ 0.25 |
| TPKA | ≤ 0.25 |
| DLCA | ≤ 0.25 |
| TKWD | ≤ 0.25 |

| Variant | enrichment ratio |
| --- | --- |
| MPHQ | ≤ 0.25 |
| YENH | ≤ 0.25 |
| WNTQ | ≤ 0.25 |
| PVPP | ≤ 0.25 |
| TYCP | ≤ 0.25 |
| SWMI | ≤ 0.25 |
| GTCY | 1.72 |
| MCCK | ≤ 0.25 |
| VIMM | ≤ 0.25 |
| YVLI | 1.33 |
| WYPK | ≤ 0.25 |
| GTDL | ≤ 0.25 |
| LWRG | ≤ 0.25 |
| SYSV | ≤ 0.25 |
| ALQS | ≤ 0.25 |
| IKYM | ≤ 0.25 |
| YWMM | ≤ 0.25 |
| DKPA | ≤ 0.25 |
| SKYQ | ≤ 0.25 |
| NSAV | 2.12 |
| WWFI | ≤ 0.25 |
| NRLA | ≤ 0.25 |
| DNAI | ≤ 0.25 |
| DEDW | ≤ 0.25 |

| Variant | enrichment ratio |
| --- | --- |
| FYMG | ≤ 0.25 |
| NRPF | ≤ 0.25 |
| ELHC | ≤ 0.25 |
| DSLF | ≤ 0.25 |
| FDYG | ≤ 0.25 |
| KMVL | ≤ 0.25 |
| MNGY | 6.65 |
| HSEW | 2.17 |
| MMHD | ≤ 0.25 |
| GRHF | ≤ 0.25 |
| GTVA | ≤ 0.25 |
| ITYC | ≤ 0.25 |
| DKSS | ≤ 0.25 |
| AGKG | ≤ 0.25 |
| HGQV | ≤ 0.25 |
| QDSA | ≤ 0.25 |
| QCSH | 9.17 |
| NWPH | ≤ 0.25 |
| VETC | ≤ 0.25 |
| ECHW | ≤ 0.25 |
| IACP | ≤ 0.25 |
| VTDA | ≤ 0.25 |
| GMVH | ≤ 0.25 |
| IIYA | ≤ 0.25 |

| Variant | enrichment ratio |
| --- | --- |
| ISAH | ≤ 0.25 |
| LERQ | ≤ 0.25 |
| ERAT | ≤ 0.25 |
| TTWF | 2.06 |
| SLKI | 0.521 |
| VNQR | ≤ 0.25 |
| FTGN | ≤ 0.25 |
| QSWR | ≤ 0.25 |
| HYHQ | ≤ 0.25 |
| GCMV | ≤ 0.25 |
| YQYF | ≤ 0.25 |
| GWTF | ≤ 0.25 |
| KRDT | ≤ 0.25 |
| HSGW | 2.07 |
| FAQT | ≤ 0.25 |
| HMSG | ≤ 0.25 |
| NDLD | ≤ 0.25 |
| PPCL | ≤ 0.25 |
| LMRS | ≤ 0.25 |
| LNIV | ≤ 0.25 |
| KPCS | ≤ 0.25 |
| YCDH | ≤ 0.25 |
| YDVK | ≤ 0.25 |
| VVNW | ≤ 0.25 |

| Variant | enrichment ratio |
| --- | --- |
| SVSM | 13.3 |
| TLQL | 13 |
| NHIQ | ≤ 0.25 |
| TRMW | ≤ 0.25 |
| FDHE | ≤ 0.25 |
| YQFV | ≤ 0.25 |
| IWIC | ≤ 0.25 |
| TCTP | 0.8 |
| RQAM | ≤ 0.25 |
| GDIG | ≤ 0.25 |
| LANY | ≤ 0.25 |
| VPPE | ≤ 0.25 |
| MFEE | ≤ 0.25 |
| HSEP | ≤ 0.25 |
| YHTM | ≤ 0.25 |
| TAQL | 8.71 |
| ALAK | 0.502 |
| MIRS | ≤ 0.25 |
| RSNI | ≤ 0.25 |
| IFVA | ≤ 0.25 |
| NKEC | ≤ 0.25 |
| IYKR | ≤ 0.25 |
| KCAF | ≤ 0.25 |
| SCSH | 6.66 |

| Variant | enrichment ratio |
| --- | --- |
| IPDE | ≤ 0.25 |
| QYKH | ≤ 0.25 |
| SHWD | ≤ 0.25 |
| MNFE | ≤ 0.25 |
| MRWY | ≤ 0.25 |
| KQHP | ≤ 0.25 |
| IAVT | ≤ 0.25 |
| VMWN | ≤ 0.25 |
| PAEW | ≤ 0.25 |
| HGFW | 0.903 |
| KERC | ≤ 0.25 |
| TCTG | 20 |
| SWEK | ≤ 0.25 |
| NFFW | ≤ 0.25 |
| ALIC | ≤ 0.25 |
| WESG | ≤ 0.25 |
| WYVK | ≤ 0.25 |
| IARY | ≤ 0.25 |
| DWIS | ≤ 0.25 |
| PVER | ≤ 0.25 |
| AMRC | ≤ 0.25 |
| DWKT | ≤ 0.25 |
| DYLV | ≤ 0.25 |
| LDYQ | ≤ 0.25 |

| Variant | enrichment ratio |
| --- | --- |
| SCEG | ≤ 0.25 |
| MADR | ≤ 0.25 |
| GIGP | ≤ 0.25 |
| FAVH | ≤ 0.25 |
| IAVL | ≤ 0.25 |
| GGMM | ≤ 0.25 |
| FQRC | ≤ 0.25 |
| HQSH | ≤ 0.25 |
| LTPM | ≤ 0.25 |
| TPHW | ≤ 0.25 |
| HKNQ | ≤ 0.25 |
| MRNI | ≤ 0.25 |
| NDLS | ≤ 0.25 |
| DRNM | ≤ 0.25 |
| PEKP | ≤ 0.25 |
| PTME | ≤ 0.25 |
| KLKI | ≤ 0.25 |
| FDMR | ≤ 0.25 |
| VSTE | ≤ 0.25 |
| GSWT | ≤ 0.25 |
| QDCC | ≤ 0.25 |
| VLMP | ≤ 0.25 |
| PLII | ≤ 0.25 |
| FTCG | ≤ 0.25 |

| Variant | enrichment ratio |
| --- | --- |
| FSIS | 0.291 |
| TSDS | 0.648 |
| DREM | ≤ 0.25 |
| HTRL | ≤ 0.25 |
| TPVQ | ≤ 0.25 |
| GCTD | ≤ 0.25 |
| QHQI | ≤ 0.25 |
| EKLP | ≤ 0.25 |
| PYKH | ≤ 0.25 |
| NKHI | ≤ 0.25 |
| HCGP | ≤ 0.25 |
| WYPI | ≤ 0.25 |
| SPTL | ≤ 0.25 |
| SCFK | ≤ 0.25 |
| VHYG | ≤ 0.25 |
| FMVE | ≤ 0.25 |
| HRAP | ≤ 0.25 |
| ANPG | ≤ 0.25 |
| CFHF | ≤ 0.25 |
| HCIS | ≤ 0.25 |
| TRED | ≤ 0.25 |
| SEHV | ≤ 0.25 |
| YHKD | ≤ 0.25 |
| RFEP | ≤ 0.25 |

| Variant | enrichment ratio |
| --- | --- |
| RRCT | ≤ 0.25 |
| IHRS | ≤ 0.25 |
| TADS | ≤ 0.25 |
| IKPD | 3.42 |
| HPHK | ≤ 0.25 |
| KANH | ≤ 0.25 |
| FQYD | ≤ 0.25 |
| NQTF | ≤ 0.25 |
| PMLW | ≤ 0.25 |
| NGNN | ≤ 0.25 |
| SINH | 6.28 |
| KTTL | ≤ 0.25 |
| QGPR | ≤ 0.25 |
| PAAY | ≤ 0.25 |
| ALGI | ≤ 0.25 |
| SNFF | ≤ 0.25 |
| GKTK | ≤ 0.25 |
| LAMQ | ≤ 0.25 |
| TNTM | 31.2 |
| ICVK | ≤ 0.25 |
| AYHD | ≤ 0.25 |
| YGHR | ≤ 0.25 |
| STGE | 0.755 |
| AAMK | 35.5 |

| Variant | enrichment ratio |
| --- | --- |
| RSDA | ≤ 0.25 |
| AGIC | 3.1 |
| NPCI | ≤ 0.25 |
| DKMV | ≤ 0.25 |
| KGWI | ≤ 0.25 |
| TKPS | ≤ 0.25 |
| RQAA | ≤ 0.25 |
| DHYI | ≤ 0.25 |
| MMAM | ≤ 0.25 |
| SNYI | 0.257 |
| WCHP | ≤ 0.25 |
| LHTD | ≤ 0.25 |
| YAPY | ≤ 0.25 |
| QLRY | ≤ 0.25 |
| QECR | ≤ 0.25 |
| PKLE | ≤ 0.25 |
| GYQE | ≤ 0.25 |
| EGMK | ≤ 0.25 |
